Drawing on paper PMC12136788, this text covers binding signal for 14 molecules.

This is one part of the list.

B1: chrX:149583016:149583017:+_ENSMUSG00000041658_ENSMUST00000039720|mus_mus|motif|central (ssRNA)
RNA: GGGAGUUCUACAGUCCGACGAUCAUUUCCAACAGAGUCUACGAGAGAGUAGGUGCUCAAACUGCUAUUAAUUUGAAGACGGUGUAUACGGUCUAGUAUUGUUGCACCAAGACGACGUGUGUCUCUGGCAAUAUAAUUUGCAAACAACAGAGGAUUGAGCAUCA
B2: 79712232_79715897_320_CDS_ENSMUSG00000020153_ENSMUST00000105364|mouse|control|control (ssRNA)
RNA: GGGAGUUCUACAGUCCGACGAUCCAGGCUCGGGCUUGGGCUCGGGCUCGGGCCCUCAGUGGCUACACUCUGAUGAACUCUGCGCAGCUGGACCUGUGCUGUGCGCAGACCCAGGAUCCGUACAGAGAGCAGGCCAGGAGCCGCCAACAGAGGAUUGAGCAUCA
B3: chr17:13109412:13109413:+_ENSMUSG00000068039_ENSMUST00000151287|mus_hu|FALSE|FALSE (ssRNA)
RNA: GGGAGUUCUACAGUCCGACGAUCCGGUCACCGAACACGGACAAAGGCCCCUCCAUCUUGACGGCAGCGAUACACGUCGAAUUCUGCUUACACCGCGGGCAACCAGUAUCGCGGCCCCUCGGCCGACCGGCGACCACAGCAGUGCAACAGAGGAUUGAGCAUCA
B4: chr2:166767530:166767531:+_ENSMUSG00000002718_ENSMUST00000002790|mus_hu|FALSE|FALSE (ssRNA)
RNA: GGGAGUUCUACAGUCCGACGAUCAAAUAUUUCUUGUAGUGCUAGUGCCCCAUAUUUUAUGCAAUACAAAUUAAUAAAGACUAAAAAACUCUUGAUAAACUUGGUUGUUUUGGAAUUCUGAAGUCUCUGGAAUAGCAGAAUGAACAACAGAGGAUUGAGCAUCA
B5: chr6:38652254:38652255:-_ENSG00000124767_ENST00000373365|hu_hu|hu_hu_hu_mus_False|78_108 (ssRNA)
RNA: GGGAGUUCUACAGUCCGACGAUCCGAAAACUUCAUAGCAGGGAAGUCAAGCUUCUGGAUUAGCGUCAGUCCAAGAACCCUCGUAUAAAAAUCCAGGGACUUCUUAGGAUCCUUAAUUCUUAGCAUCGUUUGCUGCAGUAGAAACAACAGAGGAUUGAGCAUCA
B6: chr5:107067165:107067166:-_ENSMUSG00000049606_ENSMUST00000112696|mus_hu|motif|central (ssRNA)
RNA: GGGAGUUCUACAGUCCGACGAUCAACUGAAGCAGAGGUAGGUAGUUUUUUAUUGGAAUGGGUGGGAUUCUUAGCAUGUGCGGCAUCUGAUAACAAAAAUAAAACUUGGUGUUGACUUGCUUUCUGUGGUGUAGACAGCUGAAGCAACAGAGGAUUGAGCAUCA
B7: 39607422_39609318_1646_3pUTR_ENSG00000078142_ENST00000262039|human|control|control (ssRNA)
RNA: GGGAGUUCUACAGUCCGACGAUCAGAACGCAUAACUCUGACAGACUUAUCACCCUUCAACAAUGCUUGGCUGAAUCUUCUCAUUACGUUCAAGUACAUCUCAUGGGUCUUUGGAUCUCUCUGCUGAGUAUCUUGAUCUUCACACAACAGAGGAUUGAGCAUCA
B8: chr1:224553637:224553638:+_ENSG00000143771_ENST00000366856|hu_hu|FALSE|FALSE (ssRNA)
RNA: GGGAGUUCUACAGUCCGACGAUCUCGAUAUAUAUUCCAAGUGGCAACAGGUAAGUUGAGAAGGAAGAUGAACCAGUGCAAUGACAUGAGCAGUAAUACAGUGACAAUGGUAUGGCCAAUCAAUUCUGGAAUUACCCACUUGUUCAACAGAGGAUUGAGCAUCA
B9: 138055828_138055948_2858_3pUTR_ENSMUSG00000041642_ENSMUST00000075164|mouse|control|control (ssRNA)
RNA: GGGAGUUCUACAGUCCGACGAUCGACUCAGCCUCAGACGAGGUGGUGCUGGCAGACACCUCAGCCCCAGAAUCCAUAUUGGGGGGCUUCAAUCCUACACGCCCAGCCACUCGCUCAGACAUGGGCUUUGCCAGGCGCCUCAGUCAACAGAGGAUUGAGCAUCA
B10: chr19:41088299:41088300:+_ENSG00000160410_ENST00000291842|hu_hu|FALSE|FALSE (ssRNA)
RNA: GGGAGUUCUACAGUCCGACGAUCGACGGCAUUCCACACCCCGAUGCGCCCUGUGUGGCUUGUAGCAAUGAGCUGGUUCCCGACGAAGAACAAGGCCUCCACAGGCACCCCCAGAUGAAAGACCCCUAUCUCGGAGCCACCGCCCAACAGAGGAUUGAGCAUCA
B11: chr4:17488853:17488854:-_ENSG00000151552_ENST00000428702|hu_hu|FALSE|FALSE (ssRNA)
RNA: GGGAGUUCUACAGUCCGACGAUCUAGGCUUCCUGAGCUCGGUCGGUUUUUCCCUGUGAUCCAGUCAUGGAAAGUUUCAACUAGGAAUUCUAAGGGUGUCCAGGAGCUGAAGUCAGCCUCAGGCAUUGAUUUCCUGUUCAUCGGCAACAGAGGAUUGAGCAUCA
B12: chr3:10015032:10015033:+_ENSMUSG00000027533_ENSMUST00000029046|mus_mus|mus_mus_mus_hu_True|28_98 (ssRNA)
RNA: GGGAGUUCUACAGUCCGACGAUCGUUUUUACCAUCACACGUAAUGAUACAAUCUGGCUUGGCCAUUGCGCCCAUUUUUCGCAAAGCUAUUCCCACUCCUAGCUCCUUCAUGUACUCAUCAAAGCCUUUGCUGUCCACCAGGCGCAACAGAGGAUUGAGCAUCA
B13: chr5:146772872:146772873:-_ENSG00000113657_ENST00000343218|hu_mus|FALSE|FALSE (ssRNA)
RNA: GGGAGUUCUACAGUCCGACGAUCCAUUUGUUCAUCUGUGUGUGGUCUUCACAGCUGGGAAUAGAAGACUAGAAAGCCACAGGAGAAAGAGGCCUGAGCAAGCAACUGGCAUCACAGGUGGAAGAAAUGGCUGGAUUCUGUCAUCAACAGAGGAUUGAGCAUCA
B14: chr18:52893488:52893489:-_ENSG00000196628_ENST00000354452|hu_hu|hu_hu_hu_mus_True|18_98 (ssRNA)
RNA: GGGAGUUCUACAGUCCGACGAUCUAUUUAGACCAUUUCAAUGGAUUUAUGGCAUUUACUCAGUGCUGAUAGGUGGAAAAACUACUUCAACAGGGAUUUUUUUUUUCCUUAAUACAUGCCAAGAAUUUGUGGCUGUCAAAACAGCAACAGAGGAUUGAGCAUCA

The target of the experiment is T1, UNK ZnF1-3 (human, UniProt Q9C0B0 31-174).
T1 sequence: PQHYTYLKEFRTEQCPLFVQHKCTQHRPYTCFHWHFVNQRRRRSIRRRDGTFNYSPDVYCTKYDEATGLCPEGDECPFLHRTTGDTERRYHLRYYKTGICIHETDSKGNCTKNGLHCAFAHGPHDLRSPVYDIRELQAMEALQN
As to the kind of experiment: nsRBNS (natural sequence RNA bind-n-seq); RBNS binding buffer (assumed for nsRBNS): 25 mM Tris pH 7.5, 150 mM KCl, 3 mM MgCl2, 0.01% Triton X-100, 500 ug/ml BSA, 20 U/ml SUPERase-In, 4 C; UNK is unkempt and MSI1 is Musashi-1; names of the RNAs are library labels; protein concentration not given here; high values mean tight binding.
B1 showed a binding signal of 0.834 enrichment R.
For the molecule B2, the binding signal came to 0.582 enrichment R.
Consider B3, for which the binding signal is 0.798 enrichment R.
Take B4: the binding signal was 1.53 enrichment R.
For the molecule B5, the binding signal worked out at 1.03 enrichment R.
Take B6: the binding signal amounted to 2.65 enrichment R.
The value for B7 was 0.818 enrichment R; that for B8 was 1.2 enrichment R; that for B9 was 0.672 enrichment R.
Consider B10, for which the binding signal was 1.5 enrichment R.
Molecule B11 returned a binding signal of 0.96 enrichment R.
The molecule B12 returned a binding signal of 0.657 enrichment R.
For the molecule B13, the binding signal is 2.75 enrichment R.
As for B14, the binding signal worked out at 1.08 enrichment R.
